{
  "source": "the supplement of paper PMC5499739",
  "note": "Over roughly 16,000 sequences, “Z-score” has its median near -0.37; the highest 2% begin near 3.2. Some of the results follow.",
  "data": [
    {"tested_on": "RBM10 RRM1-ZnF (GST-tagged construct)", "assay": "RNAcompete 7-mer binding Z-score; higher = stronger binding preference", "procedure,_shortened": "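Bound RNA was identified by microarray hybridisation after GST-tagged RBM10 constructs (20 pmol) had been mixed with 1.5 nmol of a designed pool of 241 399 RNAs up to 41 nt, transcribed from microarray-derived DNA templates. Binding ran for 30 min at 4°C in 1 ml Hepes pH 7.8 buffer with KCl, NaCl, glycerol, DTT, BSA and glutathione Sepharose beads, with four 2-min washes at 4°C afterwards. For every heptamer motif, a one-sided Z-score for enrichment was computed across the probes that contained it.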", "values": [
      {"sequence": "UAGUGUG", "RNAcompete 7-mer binding Z-score": 0.446},
      {"sequence": "GAGGGGC", "RNAcompete 7-mer binding Z-score": 2.44},
      {"sequence": "CAGCUAA", "RNAcompete 7-mer binding Z-score": -0.428},
      {"sequence": "ACUUAGA", "RNAcompete 7-mer binding Z-score": -0.496},
      {"sequence": "CUAAGUU", "RNAcompete 7-mer binding Z-score": -0.649},
      {"sequence": "CGAAGUC", "RNAcompete 7-mer binding Z-score": -0.655},
      {"sequence": "GAGCUGU", "RNAcompete 7-mer binding Z-score": -0.126},
      {"sequence": "UUUUCCU", "RNAcompete 7-mer binding Z-score": -0.925},
      {"sequence": "UGUUCGC", "RNAcompete 7-mer binding Z-score": -0.604},
      {"sequence": "AGCAAUU", "RNAcompete 7-mer binding Z-score": -0.591},
      {"sequence": "CACACGU", "RNAcompete 7-mer binding Z-score": -0.438},
      {"sequence": "AACGCUC", "RNAcompete 7-mer binding Z-score": -0.74},
      {"sequence": "AGCAGAG", "RNAcompete 7-mer binding Z-score": 1.36},
      {"sequence": "UUUUGGU", "RNAcompete 7-mer binding Z-score": 0.547},
      {"sequence": "GGUUCGC", "RNAcompete 7-mer binding Z-score": -0.0512},
      {"sequence": "GAUAGCU", "RNAcompete 7-mer binding Z-score": -0.0414},
      {"sequence": "UAGUGCC", "RNAcompete 7-mer binding Z-score": -0.49},
      {"sequence": "CAAACUU", "RNAcompete 7-mer binding Z-score": -0.776},
      {"sequence": "AUAUCCA", "RNAcompete 7-mer binding Z-score": -0.62},
      {"sequence": "AUAGGCG", "RNAcompete 7-mer binding Z-score": 0.781},
      {"sequence": "UAUCUGA", "RNAcompete 7-mer binding Z-score": -0.717},
      {"sequence": "GGCUAUG", "RNAcompete 7-mer binding Z-score": 0.508},
      {"sequence": "CACUAAU", "RNAcompete 7-mer binding Z-score": -0.834},
      {"sequence": "UACUCUU", "RNAcompete 7-mer binding Z-score": -0.818},
      {"sequence": "AAGUGUG", "RNAcompete 7-mer binding Z-score": 1.18},
      {"sequence": "CAUUGUC", "RNAcompete 7-mer binding Z-score": -0.711},
      {"sequence": "GUGAUGA", "RNAcompete 7-mer binding Z-score": 0.949},
      {"sequence": "CUCCUUU", "RNAcompete 7-mer binding Z-score": -0.811},
      {"sequence": "GGUAUGU", "RNAcompete 7-mer binding Z-score": 1.56},
      {"sequence": "GUUACCC", "RNAcompete 7-mer binding Z-score": -0.295},
      {"sequence": "CGUAUUG", "RNAcompete 7-mer binding Z-score": -0.285},
      {"sequence": "GGUGGAC", "RNAcompete 7-mer binding Z-score": 2.49},
      {"sequence": "AAUAGAA", "RNAcompete 7-mer binding Z-score": 0.592},
      {"sequence": "UGCCAUA", "RNAcompete 7-mer binding Z-score": -0.763},
      {"sequence": "UUAGUUA", "RNAcompete 7-mer binding Z-score": -0.298},
      {"sequence": "CCGAUAG", "RNAcompete 7-mer binding Z-score": -0.623},
      {"sequence": "UCCAUUU", "RNAcompete 7-mer binding Z-score": -0.919},
      {"sequence": "CGCAAUG", "RNAcompete 7-mer binding Z-score": -0.256},
      {"sequence": "CAUAGAC", "RNAcompete 7-mer binding Z-score": -0.701},
      {"sequence": "CUCAAGC", "RNAcompete 7-mer binding Z-score": -0.636},
      {"sequence": "AAGGAUU", "RNAcompete 7-mer binding Z-score": 1.45},
      {"sequence": "AUUUCUU", "RNAcompete 7-mer binding Z-score": -0.805},
      {"sequence": "AUGGUGC", "RNAcompete 7-mer binding Z-score": 1.03},
      {"sequence": "ACUUCUA", "RNAcompete 7-mer binding Z-score": -0.867},
      {"sequence": "UUCUAGU", "RNAcompete 7-mer binding Z-score": -0.591},
      {"sequence": "UGUUCUG", "RNAcompete 7-mer binding Z-score": -0.652},
      {"sequence": "GUCUAGC", "RNAcompete 7-mer binding Z-score": -0.516},
      {"sequence": "GUUCGAU", "RNAcompete 7-mer binding Z-score": -0.545},
      {"sequence": "GAUGUUU", "RNAcompete 7-mer binding Z-score": -0.0674},
      {"sequence": "UGUCUGA", "RNAcompete 7-mer binding Z-score": -0.688},
      {"sequence": "UAUGUAU", "RNAcompete 7-mer binding Z-score": -0.392},
      {"sequence": "UGGUUCU", "RNAcompete 7-mer binding Z-score": -0.21},
      {"sequence": "AGGCCAA", "RNAcompete 7-mer binding Z-score": -0.451},
      {"sequence": "CUUAAUC", "RNAcompete 7-mer binding Z-score": -0.87},
      {"sequence": "CCACGGU", "RNAcompete 7-mer binding Z-score": -0.288},
      {"sequence": "CAUUCGU", "RNAcompete 7-mer binding Z-score": -0.685},
      {"sequence": "UGUUCUU", "RNAcompete 7-mer binding Z-score": -0.88},
      {"sequence": "UUGUCGU", "RNAcompete 7-mer binding Z-score": -0.623},
      {"sequence": "GCUAUGG", "RNAcompete 7-mer binding Z-score": 0.923},
      {"sequence": "GCGCUAG", "RNAcompete 7-mer binding Z-score": 0.121},
      {"sequence": "UAAUUCA", "RNAcompete 7-mer binding Z-score": -0.639},
      {"sequence": "GGGAGGU", "RNAcompete 7-mer binding Z-score": 3.68},
      {"sequence": "CGCUCCG", "RNAcompete 7-mer binding Z-score": -0.62},
      {"sequence": "GACUGAC", "RNAcompete 7-mer binding Z-score": -0.285},
      {"sequence": "ACCCGCC", "RNAcompete 7-mer binding Z-score": -0.714},
      {"sequence": "UUGUUCG", "RNAcompete 7-mer binding Z-score": -0.467},
      {"sequence": "UUCACCC", "RNAcompete 7-mer binding Z-score": -0.646},
      {"sequence": "CGAACAU", "RNAcompete 7-mer binding Z-score": -0.503},
      {"sequence": "GUAGCAG", "RNAcompete 7-mer binding Z-score": 1.13},
      {"sequence": "AUCACGA", "RNAcompete 7-mer binding Z-score": -0.431},
      {"sequence": "CGACGGC", "RNAcompete 7-mer binding Z-score": -0.113},
      {"sequence": "GCCCGUG", "RNAcompete 7-mer binding Z-score": -0.23},
      {"sequence": "UAUGAGC", "RNAcompete 7-mer binding Z-score": -0.162},
      {"sequence": "GAAACCG", "RNAcompete 7-mer binding Z-score": -0.327},
      {"sequence": "CCAUUAU", "RNAcompete 7-mer binding Z-score": -0.915},
      {"sequence": "AUAAGCU", "RNAcompete 7-mer binding Z-score": -0.327},
      {"sequence": "AGGCCUC", "RNAcompete 7-mer binding Z-score": -0.756},
      {"sequence": "UAGGCCU", "RNAcompete 7-mer binding Z-score": -0.477},
      {"sequence": "UACGUUG", "RNAcompete 7-mer binding Z-score": -0.123},
      {"sequence": "CUAAGAU", "RNAcompete 7-mer binding Z-score": -0.519},
      {"sequence": "GGAGGUU", "RNAcompete 7-mer binding Z-score": 2.51},
      {"sequence": "GCCCUUA", "RNAcompete 7-mer binding Z-score": -0.685},
      {"sequence": "GUAUCAG", "RNAcompete 7-mer binding Z-score": -0.0512},
      {"sequence": "UAAUAAG", "RNAcompete 7-mer binding Z-score": 0.0365},
      {"sequence": "UUCUCUA", "RNAcompete 7-mer binding Z-score": -0.837},
      {"sequence": "GUAAUAG", "RNAcompete 7-mer binding Z-score": 0.449},
      {"sequence": "UUGGAAU", "RNAcompete 7-mer binding Z-score": 0.699},
      {"sequence": "UCACGGA", "RNAcompete 7-mer binding Z-score": 0.144},
      {"sequence": "UAUUAUC", "RNAcompete 7-mer binding Z-score": -0.613},
      {"sequence": "UAAGUCC", "RNAcompete 7-mer binding Z-score": -0.701},
      {"sequence": "UUCUACC", "RNAcompete 7-mer binding Z-score": -0.818}
    ]}
  ]
}
